The values below come from the supplement of paper PMC11417369.

The other results are listed elsewhere or left out.

This assay relates to PfHDP1 homeodomain (GST-tagged). In words: gcPBM binding intensity (ln(normalized median fluorescence intensity)); higher = stronger DNA binding. The method in brief: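 In this array assay, P. falciparum DNA-binding domains with a GST tag, expressed in E. coli, were applied for 1 h to primer-extended double-stranded 36-bp intergenic genomic probes and negative controls on an Agilent 4 × 180k array. Bound protein was visualised with Alexa488 anti-GST antibody at 488 nm. Binding intensity is the highest Masliner-normalised natural-log median intensity across replicate spots of either probe orientation.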
In the case of “AGCATAAACAATTTTTGAAAAAATATACACTCATAG [CACACA_negctrl_site890]”, the “gcPBM binding intensity (ln)” value amounted to 6.62. Next, “TATATATATATATACACACACACAAAAAAAAAAAAA [CACACA_site1505]”: 9.2; “TCTACAAGGCTTGATCGTACAATTTGAATGTATTTG [XGTACX_site7698]”: 6.29; “CTCAACATATACGTAACACACATATATATATATATA [CACACA_site3838]”: 9.39.

“TATGCAAGGAACCACACACACACACCCAAATGTATA [CACACA_site750]”: the “gcPBM binding intensity (ln)” value worked out at 6.93. Next, “AGATTATATATATGTATATATGTATATATTTATATA [CACACA_negctrl_site1797]”: 6.12. “TAAATATTAACAATCGCACACATATTATTTTTCCAA [CACACA_site1626]”: the “gcPBM binding intensity (ln)” value turned out to be 6.84. Next, “GAATATATATTCATATGTACACAATTTATGTATTAT [XGTACX_site4719]”: 6.56. Next, “AAGGTAAACAGACACACACACATACAAAAAAAAAAA [CACACA_site3768]”: 6.67. As for “AAAAAGAAAAAATATATTCGTCTATTATAAACAATA [CACACA_negctrl_site648]”, the figure is 6. As for “GAATATAAACCTATTACACACATCTATATGTACATT [CACACA_site1914]”, the “gcPBM binding intensity (ln)” value stood at 6.88. Take “CTATATCATTTTCTAGCACACACATTGTTATTACCT [CACACA_site8204]”: the “gcPBM binding intensity (ln)” value came to 7.16. As for “ATTTTTTTTATTATTACACACATATAACAAAAAAAT [CACACA_site6934]”, the figure is 6.71; as for “TTTTTTATGCTAACTTCTTTTTCCTTATAAAATTGG [TGCATGCA_negctrl_site598]”, 6.7; as for “AACACATACAGATATGCACACATTTTATTCCATTAT [CACACA_site5565]”, 9.92. As for “TATTTATAAATGAACACACACGCAATTTGAATCGAA [CACACA_site3371]”, the figure is 7.09; as for “ATATATATATTATATGCACACTTATATTTCATTAGA [CACACA_site5439]”, 10.3. With “TTTTTATATTTCAACATATCACAATTTTATATATCT [CACACA_negctrl_site178]”, the “gcPBM binding intensity (ln)” value was found to be 6.43. Next, TTTTGTTTTTGTAGAGTGCATAAAGAAGATATGTAT: 8.75; “TGGAAACAATGACACACACACAAAAAAAAAAAAAAA [CACACA_site7494]”: 6.22. Next, “GTAGGGGAAAAAAAAACACACAAAAAACAACAGATC [CACACA_site1187]”: 7.01; “TTATCTCTACAAAGTGCACACACGTAAAAACATATA [CACACA_site3957]”: 8.98; “ATAATAATATTTCTATGTACTTATTTTATGTATTAG [XGTACX_site1747]”: 6.54.

As to “AAAAATTAAAATATAACTAATTAATTTGTATTCATT [CACACA_negctrl_site1633]”, the “gcPBM binding intensity (ln)” value stood at 5.77.

Take “TATAAATACTTAGAAACACACAAAAATATTTTATAA [CACACA_site7259]”: the “gcPBM binding intensity (ln)” value worked out at 6.55. As for “TGTAATTGTTTAAAGGGTACATATATCAGATGTCTT [XGTACX_site5877]”, the figure is 6.17.

With “ATAATTCTTTTACTGTGTACATATTATCACTTATTT [XGTACX_site2456]”, the “gcPBM binding intensity (ln)” value amounted to 7.25. On to “CATTATGTTGTAAATACACACATACAGATACATACA [CACACA_site4565]”, for which the “gcPBM binding intensity (ln)” value was found to be 6.61. As for “ATATGCGTTTGCAAATGTACATATTATTTATATATA [XGTACX_site7128]”, the figure is 8.86; as for “TAAAGGCAAACAAACACACACACATAAATACAGATA [CACACA_site5204]”, 7.04; as for “TTTTTTGGTTTTCATGCACACAATTTATAAATCTAT [CACACA_site3106]”, 9.76. As for “ATTTTATAACATTCATGTACACATTTCATTTATTTG [XGTACX_site3028]”, the figure is 6.61. As for “CATATAAATATATATACACACACACCGTAATACATA [CACACA_site9158]”, the figure is 6.88.

For the sequence “TTTTAATATTTTAAGAGTACAGAAATATATAATATG [XGTACX_site4955]”, the “gcPBM binding intensity (ln)” value was 6.61. As for “AGAGACACTTTTTATTGTACAAGAGGAGGTTACCTT [XGTACX_site8768]”, the figure is 6.41; as for “ATATAATGGACCATAGTGCATAAAAATAACAAAAAA [GTGCAC_site9558]”, 8.62. On to TTTTTATATTTTATAGTGCAAAAACTTACATAAAAT, for which the “gcPBM binding intensity (ln)” value came out at 9.18. As for “TGGAAATATATATATATATATACATATATATATAGC [XGTACX_negctrl_site107]”, the figure is 6.63. As for “TATTTTTTTTCTTTATTTATAACGCTCAATATATTC [GTGCAC_negctrl_site265]”, the figure is 6.78; as for “AATACCATAATCAATGCACACATAACAAAATATTAT [CACACA_site8873]”, 9.19. For “TACGAAAAAAAAAAAAAAAAAAAAAAACACAAAAAA [CACACA_negctrl_site1643]”, the “gcPBM binding intensity (ln)” value was determined as 6.01. Consider “ACAGTATCAATATGGATAAAAATGTCCATATGCCTG [TGCATGCA_negctrl_site482]”, for which the “gcPBM binding intensity (ln)” value is 5.89.

As for “TATATAACATATAACACACATACTTAGTATTACATA [CACACA_site3099]”, the “gcPBM binding intensity (ln)” value was 6.5. Next, “TGTTAATAGAAATACGTGCACACTAAAGGGAAAACA [CACACA_site1485]”: 9.43; “TATGAAGAAAAGAATTGTACGATGTTTATTTTGTAT [XGTACX_site8614]”: 6.13. Next, “TTGTTATCTACCTGTAGTACATATATTATGTAATAT [XGTACX_site735]”: 6.42. Next, “TTATATATACCTAAGACACACACATATATATATATA [CACACA_site8153]”: 9.25; “ATTAAATATGTCAAGTGTACAAAATGTAAAAAAAAA [XGTACX_site4119]”: 6.78; “TAAATATATATATACACACACACCAAAGCAATAGAT [CACACA_site2940]”: 7.4. On to “GCCATTGTACCATCCACACACATATAAATATGTATA [CACACA_site7303]”, for which the “gcPBM binding intensity (ln)” value was found to be 7.4. Next, “TTTAATACGAATGAGGCACACACCTAGTATACATGC [CACACA_site621]”: 6.69; “TTTAATTTTTTTAAAACACACAAATATATATATATA [CACACA_site3898]”: 9.08. Next, “CAAAATAATATATATACACACACACCGATATATATA [CACACA_site8082]”: 6.83; “TATATAAAATATTAATGTACATATAAATATATATAT [XGTACX_site6656]”: 7.71; “ATTTATGAAAGAAATAGTACACACATAAACATTTGT [XGTACX_site5862]”: 6.8.

For the sequence “GTAATTAAAATATATACACACAAAGGCTATTAAATA [CACACA_site1011]”, the “gcPBM binding intensity (ln)” value was found to be 6.53. As for “AATATAATATAATGCACACATAAACAAAAAAAAAAA [CACACA_site783]”, the figure is 10.5; as for “AACAAAGAAAATACATGTACAAAAAATATTAACGAA [XGTACX_site287]”, 7.24. As for “TGGTATTTTGATGATAAAAGGAAATTTTTTTTATAC [XGTACX_negctrl_site111]”, the figure is 6.07; as for “GTTAGCATATTAAGTTGTACACAATTATTCTTCAAT [XGTACX_site8324]”, 7.01. Consider “TTACAAAAATTTTGTTCACACATAAAAATATGTTAC [CACACA_site5740]”, for which the “gcPBM binding intensity (ln)” value came to 6.32. Next, “ATATATTTTTCAAAATGTACAAATAATTAAATACCA [XGTACX_site875]”: 6.35. As for “TAATAAATTATTTTTTATTATTTTAATAACACTTCA [CACACA_negctrl_site3]”, the figure is 5.84; as for ATTAATAATCGAAAGGTGCACTTTGATTTGATAACA, 8.87; as for “TTATTATTTTATCGTAGTACACCTAAATTATAAAAC [XGTACX_site5251]”, 6.57.

As for “TAATTAAAATTATTTATAAATTAGTATATTTCTATA [CACACA_negctrl_site663]”, the “gcPBM binding intensity (ln)” value stood at 6.06. As for “AATTATATATTAAAAAGTACAAGTTAATATAATATA [XGTACX_site2737]”, the “gcPBM binding intensity (ln)” value is 6.64. Next, “TATTGTAATATTATATATATCTATTATGTATATAAA [CACACA_negctrl_site454]”: 6.12. Next, “ATATAAAAAAATTGCACACATAAATATATACATATA [CACACA_site1218]”: 10.1; “TTTATGTACAGACATATACACACCTCTATAATATAT [CACACA_site730]”: 6.82; “GATACATAGAAACACACACACATACATATATACATA [CACACA_site3438]”: 6.94.

“CCGATATAATGGAAAACACACAAAAGATATATATAT [CACACA_site2683]”: the “gcPBM binding intensity (ln)” value came out at 8.17. As for “ACATACATTTTTAAATGTACATATATATATATATAT [XGTACX_site6751]”, the figure is 9.31; as for “ATATGGCACATATGTACACACGTATAGATAATATTA [CACACA_site5162]”, 6.68. As for “ATTTATTTATTTATATGTACTTAAATGAAAGGAATA [XGTACX_site6024]”, the figure is 6.41; as for “TTTCAAAATTTTTATTTTAAATAAACATTTATAAAA [CACACA_negctrl_site1588]”, 6.08. Next, “AATATTATATGGACGTGTCCACATAAACCTATATAT [XGTACX_site2053]”: 6.35; “ATGAATATATATATTTGTACATATGTATATATATAT [XGTACX_site7527]”: 8.64. On to “TATATATTTTTTTCATGTACTTATTATATATATATA [XGTACX_site5321]”, for which the “gcPBM binding intensity (ln)” value is 8.47.

On to “GGAAATATAAAATCATGTACATATGTATATATAATT [XGTACX_site5491]”, for which the “gcPBM binding intensity (ln)” value came to 6.47. As for “AGTATAGATGTATACACACACCAAACGTTAAAAAAA [CACACA_site7443]”, the figure is 6.96; as for “TTAGTAAATACATTTGCACACATTATTTTTTAACAT [CACACA_site5448]”, 10.7. Next, “TACAAACAGACATATACACACAAAAAAAAAATAAAA [CACACA_site2562]”: 6.63.

“TCGATATATAGACACACACACTTTTAATAATTAAAT [CACACA_site7726]”: the “gcPBM binding intensity (ln)” value worked out at 6.7. For the sequence “TTATGCAGATAAAAGAGTACATATTCGTTACATACA [XGTACX_site2849]”, the “gcPBM binding intensity (ln)” value worked out at 6.37. Next, “TATATATATATATATATATATATATATATAATATTA [XGTACX_negctrl_site558]”: 9.37.

Regarding “AATCATATTTAGATTACACACAGTTTAAATATTTTA [CACACA_site1263]”, the “gcPBM binding intensity (ln)” value stood at 6.18. As for “TGTAATGTTTACAACACACAAATTATAAATACAAAA [CACACA_site5047]”, the figure is 6.53.
